According to PubChem BioAssay AID1347416 (National Center for Advancing Translational Sciences (NCATS), 2020):
Hit rate of the full screen: of about 4,100 compounds, about 1,600 (39%) were called active. The inconclusive results got no clear call from the source; some entries with a clear call stand among them for comparison. The call rests on the fitted dose curve; in most records, active means well fitted inhibition curve with a large enough effect; inconclusive means small, poorly fitted or top-dose-only effect; inactive means no such curve, though single readings can be large or run the other way. Potencies beside an inconclusive call are fits to weak or partial responses and may not hold up.

test: qHTS Validation assay for Inhibitors of Plasmodium falciparum Dd2 growth in vitro; further: nearly all actives have a fitted effect of over 70% in size; settings: P. falciparum Dd2 in RBCs, SYBR Green growth, 72 h; activity change, negative = inhibition: at 28.7 µM (top of the series) unless noted
How it was run: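 P. falciparum Dd2-infected red blood cells (2.5% hematocrit, 0.3% parasitemia) grown 72 h at 37 °C under 5% O2 with compounds in a titration, 29 uM to 0.5 nM final. Growth read as SYBR Green-1 fluorescence after ~16 h lysis; artesunate 300 nM as positive control.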
On the % scale 0 is the no-effect control and ±100 the full control effect; potency means the concentration at half of the fitted maximal effect; tags describe the fitted curve by direction and shape.

Compound | Potency | activity change, negative = inhibition
Cn1cc(CN2CCCC(COc3ccccc3C(=O)N3CCCC3)C2)c2ccccc21 (centres undefined) | inconclusive: 9.44 µM [inhibitor, partial curve] | –
Cc1noc(-c2cn(C3CCN(C(=O)c4ccc(C)s4)C3)nn2)n1 (centres undefined) | – | inactive: 30%
CC(=O)N1CCN(C(=O)CC2OC(=O)c3ccccc32)CC1 (centres undefined) | inconclusive: 15 µM [inhibitor, single point] | –
COCC1CN(C)CC12CCN(C(=O)CC1=CCCCC1)CC2 (centres undefined) | – | inactive: -27.3%
CC(C)(C)c1ccc(-c2cc(C[C@H]3CNCC[C@H]3CC(=O)N3CCN(c4ccccn4)CC3)no2)cc1 | active: 15 µM | –
CC1CC(C)CN(C(=O)c2ccc3ccccc3c2)C1 (centres undefined) | active: 2.37 µM | –
CC1CCN(CC2CCCCCN2C(=O)NCc2ccc(F)cc2)CC1 (centres undefined) | inconclusive: 13.3 µM [inhibitor, partial curve] | –
Cn1c(=O)[nH]c2nnc(-c3ccc(Cl)c(Cl)c3)nc2c1=O | active: 8.41 µM | –
O=c1c2c(nc3cc(-c4ccc(F)cc4)[nH]n13)CCC2 | inconclusive: 18.8 µM [inhibitor, partial curve, poor fit] | –
O=C(NCC1CC1)c1nc2c(o1)CCN(Cc1cccc(F)c1)CC2 | inconclusive: 24.3 µM [inhibitor, single point] | –
CCCn1c(=N)c(C(=O)NC2CCCCC2)cc2c(=O)n3cc(C)ccc3nc21 | – | inactive: -8.41%
Cc1ccsc1CN1CC(Oc2cccc(C(=O)NCC3CC3)c2)C1 | inconclusive: 16.8 µM [inhibitor, single point] | –
COc1ccc(-c2nc(N3CCOCC3)cc3c2CN(Cc2ccccc2)C3=O)cc1 | inconclusive: 9.68 µM [inhibitor, partial curve, poor fit] | –
COc1ccc(-c2noc(-c3cccn3CC(=O)N(C)c3ccc(F)cc3)n2)cc1F | – | inactive: -29.9%
O=c1oc2c(CN3CCOCC3)c(O)ccc2cc1-c1ccccc1 | active: 9.44 µM | –
COc1ccc(N(C(=O)c2snc(C(N)=O)c2N)C(C(=O)NC2CCCC2)c2cc(OC)ccc2OC)c(OC)c1 (centres undefined) | inconclusive: 16.8 µM [inhibitor, single point] | –
CCCc1noc(-c2cccn3c(CNC(=O)c4ccc(OC)cc4C)nnc23)n1 | – | inactive: 5.42%
O=C(Cn1c2[n+](c3ccccc31)CC(O)CS2)c1ccccc1 (centres undefined) | inconclusive: 10.6 µM [inhibitor, partial curve] | –
CCOC(=O)c1cccc(NC(=O)C2=C(C)C(=O)OC23CCCCC3)c1 | – | inactive: 1.2%
CCCC1=Nc2cc(C(=O)NCCc3ccccc3)ccc2Sc2ccc(C)cc21 | inconclusive: 15 µM [inhibitor, single point] | –
CC1=C[C@@H](CN(C)C)[C@H](C(C)C)C[C@H]1Cc1nc2ncc(Cl)cc2[nH]1 | inconclusive: 21.7 µM [inhibitor, partial curve] | –
CC1(c2ccccc2)N(Cc2ccccc2)C(=O)OC12CCN(C(=O)c1cccc(Cl)c1)CC2 (centres undefined) | inconclusive: 21.1 µM [inhibitor, single point] | –
Cc1cccc(-n2nc(C)c(CCC(=O)N3CCSCC3)c2Oc2ccc(F)cc2F)c1 | inconclusive: 13.3 µM [inhibitor, single point] | –

Compound | Potency | activity change, negative = inhibition
CCCc1noc(-c2cn(C3CCN(C(=O)Cc4cccc(F)c4)CC3)nn2)n1 | – | inactive: -15.8%
COc1ccccc1CNC(=O)C1(c2ccc(NC(=O)C3CC3)cc2)CCCCC1 | inconclusive: 4.22 µM [inhibitor, full curve, poor fit] | –
CC(=O)C1=C(c2ccc(Cl)cc2)N(C(C)=O)n2c(nnc2C2CCCCC2)S1 | active: 4.73 µM | –
CCOc1ccc(-c2nonc2NC(=O)COc2c(C)cc(C)cc2C)cc1OCC | – | inactive: 3.46%
Cc1ccc(C(=O)Nc2sc3c(c2C(=O)NCc2ccco2)CCC(C(C)(C)C)C3)cc1 (centres undefined) | inconclusive: 21.1 µM [inhibitor, single point] | –
O=[S+]1([O-])NCC2(CCN(Cc3ccsc3)C2)Nc2ccccc21 (centres undefined) | inconclusive: 21.1 µM [inhibitor, single point] | –
COC(=O)c1cc2sc(Cl)cc2n1CC(=O)Nc1ccc(OC)c(OC)c1OC | inconclusive: 1.5 µM [inhibitor, partial curve, poor fit] | –
COCC1CN(Cc2cccc(OC(F)(F)F)c2)CC12CCNCC2 (centres undefined) | inconclusive: 15 µM [inhibitor, partial curve] | –
CC1=C[C@@H](CNC(C)C)[C@H](C(C)C)C[C@H]1Cc1nnc(-c2ccc(C)cc2)o1 | active: 13.7 µM | –
CCN(CC)CCCC(C)Nc1cc(/C=C/c2ccccc2Cl)nc2cc(Cl)ccc12 (centres undefined) | active: 0.842 µM | –
CC(C)(C)OC(=O)N1CCC(c2c(C(=O)NCCN3CCC(Cc4ccccc4)CC3)cnn2-c2ccc(F)cc2)CC1 | active: 5.31 µM | –
COc1ccccc1-c1[nH]nc2ncc(-c3c(C)noc3C)nc12 | – | inactive: 36.2% [at 43.1 µM]
COC1CCN(CC2CCCCCN2C(=O)c2ccccc2)CC1 (centres undefined) | inconclusive: 15 µM [inhibitor, single point] | –
COc1cc2c(=O)n(CCc3ccccc3)c(=O)n(CC(=O)Nc3ccccc3)c2cc1OC | inconclusive: 21.1 µM [inhibitor, single point] | –
Cc1nnc2c(N3CCN(c4ccccc4)CC3)nc3ccc(C(=O)c4ccccc4)cc3n12 | active: 0.842 µM | –
CC(C)C[C@@]12C(=O)N(c3cccc(Br)c3)C(=O)N1[C@H](c1ccc(F)cc1)[C@@H]1C(=O)N(C3CCCCC3)C(=O)[C@@H]12 | active: 7.5 µM | –
COc1ccc(CCc2nc(C)ccc2O)cc1 | inconclusive: 13.3 µM [inhibitor, partial curve, poor fit] | –
CC1CC(C)CN(C(=O)CNC(=O)c2sc3ccccc3c2Cl)C1 (centres undefined) | – | inactive: -21.5%
Cc1cc2nc3n(c(=O)c2n1CC(=O)Nc1ccccc1C(C)C)CCCCC3 | inconclusive: 8.41 µM [inhibitor, partial curve] | –
N#Cc1ccc(C(=O)Nc2cccc(-c3nnc4n3CCCC4)c2)cc1 | inconclusive: 16.8 µM [inhibitor, single point] | –
CCCCCn1c(=O)[nH]c2cc(C(=O)NCc3ccc(OC)cc3)ccc2c1=O | – | inactive: 0.541%
CNC(=O)c1ccc(-n2nc(C)cc2-c2ccccc2)cc1 | inconclusive: 8.41 µM [inhibitor, partial curve, poor fit] | –
Cc1cc(C)cc(C(=O)NC2CCN(c3cc(-c4ccc(F)cc4)[nH]n3)C2)c1 (centres undefined) | – | inactive: -3.35%

Compound | Potency | activity change, negative = inhibition
COc1ccc(C(=O)N2CCC[C@H]2c2nc(-c3ccccc3Cl)no2)cc1OC | – | inactive: 4.37%
Cc1cccc(C(=O)NC2CCN(c3cc(-c4ccc(Cl)cc4)[nH]n3)C2)c1 (centres undefined) | – | inactive: -19.2%
CC(C)n1nc(OC(C)(C)C(=O)NCCc2cccnc2)c2cc(CN3CCOCC3)ccc21 | – | inactive: -3.54%
Cc1cc(NC(=O)CSc2nc3ccccc3[nH]2)n(-c2ccccc2)n1 | inconclusive: 21.1 µM [inhibitor, single point] | –
O=C(Nc1ccc(Cl)cc1)N1CCC(c2nc(-c3ccccc3Cl)no2)CC1 | inconclusive: 15 µM [inhibitor, single point] | –
O=S(=O)(c1cccnc1)N1CCC2(CC1)NCCc1c2[nH]c2ccccc12 | inconclusive: 16.8 µM [inhibitor, partial curve] | –
CN1C(=O)COC[C@@H]1[C@H](O)c1ccc(NC(=O)c2ccc(C(F)(F)F)cc2)cc1 | inconclusive: 21.7 µM [inhibitor, single point] | –
CC1=C(C(=O)Nc2ccc(C)cc2C)C(c2ccc([N+](=O)[O-])cc2)n2ncc(C(=O)Nc3ccc(F)cc3)c2N1 (centres undefined) | active: 2.99 µM | –
COc1cc(C(=O)NC2CCN(c3cc(-c4ccccc4)[nH]n3)CC2)cc(OC)c1OC | active: 5.96 µM | –
Cc1ccccc1Nc1cc(C)c2c(O)cccc2n1 | active: 5.31 µM | –
COc1cc(CN2CCC3(CC2)C(=O)NCN3Cc2ccc(Cl)cc2)ccc1F | – | inactive: 4.45%
CCOC(=O)C1(Cc2cccc(OC)c2)CCCN(C(=O)CCn2ccnc2C)C1 (centres undefined) | inconclusive: 23.7 µM [inhibitor, single point] | –
Clc1ccc(Nc2ccc(-n3ccnc3)nn2)cc1Cl | inconclusive: 4.22 µM [inhibitor, partial curve, poor fit] | –
Cc1cccc(OCC(=O)NC2CCN(C(=O)c3cc4c(=O)[nH]c(C)cn4n3)CC2)c1 | – | inactive: -0.762%
CNC(=O)CCn1ncc2cc(OCc3ccccc3-c3cccc(C)c3)ccc21 | inconclusive: 30.6 µM [inhibitor, single point] | –
Cc1nc(CN2C(=O)OC3(CCN(C(=O)Cc4ccc5c(c4)OCO5)CC3)C2(C)c2ccccc2)cs1 (centres undefined) | inconclusive: 2.11 µM [inhibitor, partial curve] | –
CCNC(=O)C1CCN(Cc2nc(-c3cccc(Oc4ccccc4)c3)oc2C)C1 (centres undefined) | inconclusive: 21.1 µM [inhibitor, single point] | –
CC(C)CNC(=O)c1ccc2c(c1)NC(C)(CNc1ccccc1)CO2 (centres undefined) | – | inactive: 12.1% [at 43.1 µM]
Cc1cccc(-c2ccc3ncnc(NCc4cccc(F)c4)c3c2)c1 | inconclusive: 18.8 µM [inhibitor, single point] | –
O=C(Nc1nc(-c2ccccn2)cs1)c1cccc(S(=O)(=O)N2CCOCC2)c1 | active: 5.96 µM | –
Cc1cc(C)n(CC(O)COc2ccc(Cl)cc2)n1 (centres undefined) | inconclusive: 13.3 µM [inhibitor, single point] | –
CCCN(CC1CC1)C(=O)c1ccc2c(c1)C(O)CCCCCN2CCOC (centres undefined) | inconclusive: 18.8 µM [inhibitor, partial curve, poor fit] | –
CCOC(=O)CC(=O)CSc1nc2c(cc1C#N)CCCCCC2 | inconclusive: 13.3 µM [inhibitor, partial curve, poor fit] | –
